According to the supplement of paper PMC3334620:
Whole data set: some 33,000 sequences, median “E-score (-0.5 to 0.5)” near -0.011, cut for the highest 2% near 0.28. The list shows a part of the results.

Each sequence was assayed against T1, Gcr1 (UniProt P07261) (assay: PBM E-score (8-mer binding enrichment) (E-score (-0.5 to 0.5)); higher = stronger / more preferred TF binding; most listed sequences are background and not binding sites). Conditions: protein concentration: 100 nM; construct: GST-full length.
T1 sequence: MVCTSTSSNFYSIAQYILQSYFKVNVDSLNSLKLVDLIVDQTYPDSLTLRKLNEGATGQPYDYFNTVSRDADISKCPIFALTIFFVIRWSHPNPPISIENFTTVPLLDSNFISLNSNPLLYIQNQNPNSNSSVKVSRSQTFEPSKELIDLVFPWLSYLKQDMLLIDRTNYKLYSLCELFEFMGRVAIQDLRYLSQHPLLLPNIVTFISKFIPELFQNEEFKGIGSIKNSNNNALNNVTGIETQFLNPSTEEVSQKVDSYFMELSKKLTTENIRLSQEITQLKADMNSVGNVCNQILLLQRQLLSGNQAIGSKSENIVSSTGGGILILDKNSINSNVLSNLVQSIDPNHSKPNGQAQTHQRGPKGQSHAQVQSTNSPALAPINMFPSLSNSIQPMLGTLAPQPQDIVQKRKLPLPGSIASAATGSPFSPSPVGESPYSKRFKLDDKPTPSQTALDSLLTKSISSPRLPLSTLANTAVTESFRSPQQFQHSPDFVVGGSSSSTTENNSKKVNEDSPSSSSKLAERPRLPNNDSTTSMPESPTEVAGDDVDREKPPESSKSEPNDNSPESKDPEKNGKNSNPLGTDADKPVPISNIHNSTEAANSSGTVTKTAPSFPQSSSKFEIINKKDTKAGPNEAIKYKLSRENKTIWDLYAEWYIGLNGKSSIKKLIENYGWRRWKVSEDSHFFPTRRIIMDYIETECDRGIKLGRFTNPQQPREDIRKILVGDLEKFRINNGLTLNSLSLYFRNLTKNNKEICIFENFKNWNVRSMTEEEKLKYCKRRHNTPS
In short: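 Detection of bound protein used fluorescent anti-GST, with scans normalised by masliner. The proteins were GST-tagged yeast transcription factors applied at about 100-200 nM to universal all-10-mer Agilent arrays made double-stranded by primer extension. Each ungapped eight-base word, pooled with its reverse complement, was scored with an E-score from the Universal PBM Analysis Suite.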

Sequence | PBM E-score
TACGTGAA | 0.0851
CTAAGGGA | -0.0207
CTACTCAG | -0.0129
AAAGCCGG | -0.101
CACTCGTC | 0.00996
AGACATAT | -0.164
GTGATCCA | -0.0936
GAACTACA | -0.104
ACAAGTCT | 0.0564
TATCGACA | 0.102
CCCGACGG | -0.158
ATAAGTTC | 0.0576
CATCACAA | 0.0807
TATCGCCA | -0.0946
GAAGGGTC | -0.161
GCCCTTAA | 0.0255
AGATAGTA | -0.0414
GGGAGCCA | 0.387
CGACATCA | -0.00572
AGCGGCGC | 0.116
GAATAACA | 0.236
CTCTTAGC | -0.00339

Sequence | PBM E-score
ATGAACTC | 0.0442
ATCAGTCA | 0.0329
CAGTGCCA | -0.0969
ATCTAGAT | 0.0364
ACAAGTCC | -0.16
AGGTTTGG | 0.0372
GGCTTTAC | -0.152
ACCGGAGT | 0.0988
GTGTACAA | 0.035
GACCACTA | 0.179
CTCTATGA | -0.226
AGGAGAAA | -0.114
AATAGACA | -0.116
AAATTGCG | 0.0671
TCTTTTCA | 0.02
GAACGGTC | -0.252
ACGCTCCC | 0.138
AAGCCATA | 0.161
AATACCAA | 0.0734
GGATCAGA | 0.0233
GATTAAGA | -0.0974
AACTAATC | 0.014

Sequence | PBM E-score
GAGACGGC | -0.158
CGGCACCA | 0.245
CTATGTAC | -0.164
AACTGACA | 0.0772
GAAGCTTA | 0.136
AATATATC | -0.0422
ATTACCAC | -0.0241
AGGAAAAT | -0.0988
TAGGCTAA | 0.0133
GTAGTGAA | 0.0593
CCAGCACA | -0.106
CGCTCCGC | 0.0826
AACCAAAA | 0.188
CAGTTCAA | -0.013
ACCCAGGA | 0.178
ATTTCTAG | 0.0309
CCCACATA | -0.0268
TCTTTGAA | 0.189
CACTATCA | 0.142
GAACAAAA | 0.109
AGAGGTAT | 0.196
ACGGTTAA | -0.034

Sequence | PBM E-score
ATGATCGG | -0.0394
GTGTATGA | 0.0561
ATTTATGA | 0.085
ATCCTTTA | 0.225
AATCTGCA | -0.0124
CACAAGTG | -0.0266
CACGCGAA | -0.0166
GAAGGATA | -0.14
ACAGGCGC | 0.0503
AGCAGAAG | 0.0734
GACGTAAC | -0.0765
AGATTGAC | -0.103
GTGTAGGA | 0.0669
CGTTTGAC | -0.114
AAATTATC | 0.13
CCGCGAGA | -0.16
CGAGTCAC | -0.0808
GCGGGTTA | 0.00542
TCGTATCA | 0.155
GAGCGCAA | -0.124
